These results are taken from ChEMBL document CHEMBL4888484, “Replenishing the malaria drug discovery pipeline: Screening and hit evaluation of the MMV Hit Generation Library 1 (HGL1) against asexual blood stage Plasmodium falciparum ,using a nano luciferase reporter read-out” (2022).

The whole screen tested about 150,000 compounds, of which about 540 (0.36%) showed an effect of 50% or more. Some of the results follow.

The test system of the assay is Plasmodium falciparum. The assay can be described thus: Primary screen in NF54 nanoGlo assay, in single point, at 2uM, 72h; a lower Z score goes with more inhibition. In kind it is functional, Erythrocyte. The settings on record: timepoint 72 hour.
`CNc1snc(C)c1C(=O)N1CCc2[nH]ncc2C1`: the “% Inhibition” value is on record as -12% and the Z score stood at 1.91.
With `COc1ccc(C2=NN(C(=O)CN(CCN3CCOCC3)C(=O)c3ccccc3F)[C@H](c3ccc(OC)cc3)C2)cc1`, the “% Inhibition” value worked out at 3% and the Z score is recorded as -0.44.
For `COc1ccccc1C(=O)Nc1ccc(S(=O)(=O)N2CCc3ccccc32)cc1`, in that order: -17% and 2.36.
As for `CCCc1nc(C)cc(N2CCN(CC3CC3)[C@@H](CCO)C2)n1`, the “% Inhibition” value was -16% and the Z score turned out to be 2.11.
Consider `COc1ccc2nc3ccccc3nc2c1NC(=O)c1ccc(Cl)cc1`, for which the “% Inhibition” value was determined as 3% and the Z score is listed as -0.31.
For the compound `CCCn1c(-c2cccc(C(=O)N3CCC(C)CC3)c2)nc2cccnc21`, the “% Inhibition” value is given as -5% and the Z score is on record as 0.68.
On to `CC[C@H](C)[C@H](CO)NC(=O)CCc1c(C)[nH]c2cc(=O)[nH]n2c1=O`, for which the “% Inhibition” value is -10% and the Z score is recorded as 1.2.
For `Cc1cccc(C)c1Oc1ncccc1CNC1CCC1`, in that order: 2% and -0.38.
`CCOC(Cn1cc(CO)nn1)OCC`: the “% Inhibition” value was 2% and the Z score was -0.33.
Take `Cc1cccc(Nc2nc(C(=O)N(CCC(=O)NC[C@H]3CCCO3)Cc3ccco3)cs2)c1`: the “% Inhibition” value is -9% and the Z score amounted to 1.48.
`CCOC(=O)c1cnn2c1N(S(=O)(=O)c1c(C)cnn1C)CC2`: the “% Inhibition” value was -15% and the Z score was found to be 1.92.
As for `N#CCNC(=O)c1ccc(C(F)(F)F)[nH]1`, the “% Inhibition” value is 8% and the Z score is -0.85.
Regarding `O=C(c1cccnc1)N1CCCC1CC(O)c1ccccc1` (stereo not given), the “% Inhibition” value was -13% and the Z score came out at 1.76.
As for `COCc1cc(=O)n(CC(=O)NCCc2ccc(Cl)cc2)c(N2CCCC2)n1`, the “% Inhibition” value is -8% and the Z score came to 1.12.
On to `FC(F)CN1CC[C@H](CNc2cnccn2)C1`, for which the “% Inhibition” value is -7% and the Z score is 1.03.
With `CC(C)(C)C(=O)N1CCC2(CC1)CC(=O)N(Cc1ccc(Cl)cc1)C2`, the “% Inhibition” value was -1% and the Z score is 0.11.
With `CCOC(=O)CC1=Nc2ccccc2NC(=O)C1`, the “% Inhibition” value worked out at 10% and the Z score was -1.27.
Take `O=C(Nc1cccc2[nH]ccc12)NC1CCCC1`: the “% Inhibition” value came to 7% and the Z score is on record as -1.16.
In the case of `CC(C)c1nn(C)cc1-c1noc(C2CC3C=CC2C3)n1` (stereo not given), the “% Inhibition” value was -4% and the Z score is on record as 0.59.
For `COCCN(CC1CN(Cc2ccco2)CC1c1cccc(F)c1)C(=O)C(C)C` (stereo not given), the “% Inhibition” value is -1% and the Z score is on record as 0.2.
For `O=C(NCc1nnc2ccccn12)c1c[nH]c2cc(Cl)ccc2c1=O`, in that order: -2% and 0.23.
Take `CCOc1ccc(CNC(=O)c2cccc(Nc3nc4ccccc4n4cnnc34)c2)cc1OC`: the “% Inhibition” value is given as 15% and the Z score is on record as -2.35.
With `CCNC(=O)[C@@H]1CC[C@](C)(C(=O)Nc2cnn(CC(=O)NC)c2)C1(C)C`, the “% Inhibition” value is -15% and the Z score was 2.88.
For `Cc1nc(NC2CCOCC2)c2sccc2n1` the same measures were -12% and 1.92.
On to `CO[C@@]12CC[C@H](Oc3ccccn3)C[C@@H]1N(CC1(C)CCOCC1)CC2`, for which the “% Inhibition” value is reported as -11% and the Z score is 2.19.
Consider `CN1C[C@@H](NC(=O)CCc2cccn2C)CCC1=O`, for which the “% Inhibition” value is listed as -4% and the Z score was 0.69.
As to `CN1CCCN([C@H]2CC(=O)N(c3ccc(Br)cc3)C2=O)CC1`, the “% Inhibition” value is recorded as -10% and the Z score is on record as 1.4.
For `COCc1nc(NC2CCC(NC(=O)c3ccc4c(c3)OCO4)CC2)c2c(C)nn(-c3ccccc3)c2n1` (stereo not given), in that order: 22% and -2.52.
Regarding `CC(C)CC(C)CC(=O)N1CCCC(N(C)C(=O)C2CCC2)C1` (stereo not given), the “% Inhibition” value is given as -8% and the Z score amounted to 1.19.
As to `C[C@]1(NC(=O)c2cc(F)cc(Cl)c2O)CCOC1`, the “% Inhibition” value is on record as -5% and the Z score came out at 0.66.
Take `Cc1noc(C)c1CN[C@@H](C)CC1CCCCC1`: the “% Inhibition” value is reported as -8% and the Z score is 1.48.
`O=C(Nc1ncc(Cc2ccccc2)s1)N1CCS(=O)(=O)CC1`: the “% Inhibition” value is listed as -6% and the Z score is recorded as 0.88.
For the compound `CC(C)(C)n1cc(C(=O)Nc2scnc2-c2ccc(F)cc2)cn1`, the “% Inhibition” value is listed as -5% and the Z score is reported as 0.49.
For the compound `CC(C)(C)OC1CC(NC(=O)CC#N)C1n1cccn1` (stereo not given), the “% Inhibition” value came to 7% and the Z score was -1.01.
For `CCc1cnc(Cn2cnc3c(cnn3C)c2=O)o1` the same measures were -9% and 1.41.
With `OC1(CNc2nc3ccccc3o2)CCOCC1`, the “% Inhibition” value is given as -3% and the Z score was 0.62.
In the case of `COc1ccc(OC)c(C2CCCN2C(=O)CN2C(=O)NC(C)(c3ccc(C(C)(C)C)cc3)C2=O)c1` (stereo not given), the “% Inhibition” value is recorded as 5% and the Z score was -0.83.
Turning to `CCn1cnnc1CCNc1nc(COC)nc2c1cnn2C`, the “% Inhibition” value came to 1% and the Z score is -0.15.
For `COCc1nc([C@@H]2CCCCCN2C(=O)c2cc(C(C)C)no2)no1` the same measures were 2% and -0.2.
For `CC[C@H]1CN(C(=O)c2cnc(N3CCN(C)CC3)nc2C)CCN1C(C)C`, in that order: -2% and 0.38.
For `CC1(C)CN(CCc2ccc(F)c(F)c2)C[C@@]2(CCOC2)O1` the same measures were -11% and 2.09.
In the case of `CCOc1ccnc(NCCN2CCC(CO)CC2)n1`, the “% Inhibition” value is -12% and the Z score is on record as 1.48.
For `COc1ccc(C(=O)n2[nH]c(=O)c(CCO)c2C)cc1` the same measures were 32% and -0.49.
As to `COc1ccc(O[C@H]2CCN(C(=O)c3ccc(C#N)cc3)C2)nn1`, the “% Inhibition” value is recorded as 0% and the Z score was -0.02.
On to `Cc1cc(=O)n(CC(=O)Nc2ccc(F)c(F)c2)c(Nc2ccc(C)c(C)c2)n1`, for which the “% Inhibition” value is on record as -27% and the Z score is on record as 2.94.
`COCCN(C(=O)c1nccc2cccnc12)[C@H]1CCOC1`: the “% Inhibition” value is -7% and the Z score is on record as 0.7.
On to `CN(C)c1ccc(/C=C/c2ccnc3cc(Cl)ccc23)cc1`, for which the “% Inhibition” value is reported as -8% and the Z score came out at 0.97.
In the case of `Cc1nccc(NC(=O)C(C)(C)Oc2cccc(Cl)c2)c1Cl`, the “% Inhibition” value was determined as 8% and the Z score is -0.96.
`Cc1cc(NC(=O)N2CC3C(C2)C3(C)C)c(C#N)cc1N(C)C` (stereo not given): the “% Inhibition” value was -12% and the Z score came out at 1.73.
For the compound `CS(=O)(=O)N1CCc2cc3ccccc3nc21`, the “% Inhibition” value is recorded as -10% and the Z score is given as 1.13.
Turning to `O=C(COc1cccnc1)NC(Cc1ccccn1)[C@H]1C[C@@H](O)C1` (stereo not given in full), the “% Inhibition” value turned out to be 10% and the Z score is -1.26.
In the case of `CCc1nn(C)c2c(=O)n(CC3(C)COC3)cnc12`, the “% Inhibition” value was 1% and the Z score is on record as -0.22.
Turning to `CCOCCCNC(=NC)NCCc1ccc(OC)cc1`, the “% Inhibition” value was -9% and the Z score is on record as 0.78.
Regarding `COc1ccc(F)cc1CC(=O)N1CCNC(=O)c2ccccc21`, the “% Inhibition” value is -10% and the Z score came to 1.66.
For `COc1ccc(CCc2nnc(CCC(=O)N3C[C@@H](C)O[C@@H](C)C3)o2)cc1` the same measures were -23% and 2.06.
With `Cc1cc(C)nc(O[C@H]2CCCN(S(=O)(=O)c3cccc(Cl)c3C)C2)n1`, the “% Inhibition” value turned out to be 5% and the Z score is recorded as -0.65.
For `Cc1ccc(C(=O)NC(c2ccc(F)cc2)C2CCCO2)c(=O)[nH]1` (stereo not given), the “% Inhibition” value is recorded as -10% and the Z score was found to be 1.23.
`CC(C)OCCNc1nc(N)c2ccsc2n1`: the “% Inhibition” value is listed as 8% and the Z score is listed as -1.08.
On to `CCn1cc(C#N)c(=O)n(CC(=O)Nc2cccc(C(=O)NC3CC3)c2)c1=O`, for which the “% Inhibition” value is -6% and the Z score is given as 1.14.
For `CCOCCC(=O)Nc1ccc(Br)cc1C`, in that order: -6% and 1.19.
For the compound `O=C(c1ccncc1)N1CCC[C@@](F)(C(=O)N2CCCC2)C1`, the “% Inhibition” value is reported as -28% and the Z score is 2.44.
For `Cc1cc(CS(=O)(=O)NC2c3ccccc3CCCC2C)no1` (stereo not given), the “% Inhibition” value was determined as 0% and the Z score is listed as -0.02.
For `COc1ccccc1[C@@H](c1ccc2c(OC)cccc2c1O)N1CCCCC1`, the “% Inhibition” value is on record as -2% and the Z score is 0.29.
Take `C[C@@H](C(=O)N1CCN(Cc2ccc3c(c2)OCO3)CC1)n1sc2ccccc2c1=O`: the “% Inhibition” value was -4% and the Z score worked out at 0.85.
With `COc1ccccc1C(=O)NC[C@]1(O)CCCN(C(=O)c2ccc[nH]2)CC1`, the “% Inhibition” value is given as -19% and the Z score is listed as 3.67.
For `Cc1ccc(-c2cc(C(=O)N3CCC(NC(=O)c4ccccc4C)CC3)[nH]n2)c(C)c1`, in that order: -6% and 0.82.
Turning to `CCCNC(=O)N1CC[C@@]2(CCCN(CC3CCCCC3)C2=O)C1`, the “% Inhibition” value was found to be 1% and the Z score is reported as -0.13.
In the case of `FC(F)(F)c1ccc(-n2cc(NCc3ncc[nH]3)cn2)cc1`, the “% Inhibition” value was -1% and the Z score turned out to be 0.08.
For `CC(C)(C)Cc1ncc(C(=O)N2CCO[C@]3(CCOC3)C2)s1` the same measures were -2% and 0.31.
Take `CNc1ccnc(N(C)Cc2snnc2C)n1`: the “% Inhibition” value was determined as 16% and the Z score was -2.08.
Regarding `O=C1CCC(=O)N1C1CC2CCC(C1)N2S(=O)(=O)c1ccc(C(F)(F)F)cc1` (stereo not given), the “% Inhibition” value is given as -12% and the Z score amounted to 1.39.
Regarding `Cc1nn(-c2ccccc2)c(N2CCN(C)CC2)c1CN(CCC(C)C)C(=O)c1cc(C(F)(F)F)cc(C(F)(F)F)c1`, the “% Inhibition” value came to 7% and the Z score is recorded as -0.85.
In the case of `CC(C)N1CCC(CC(=O)N[C@@H](C)[C@H](O)c2ccccc2)CC1`, the “% Inhibition” value is on record as -13% and the Z score came to 1.67.
As to `CS(=O)(=O)N1CCN(C(=O)COC(=O)C2(c3cccc(Cl)c3)CCCCC2)CC1`, the “% Inhibition” value is given as 0% and the Z score is listed as -0.05.
For `CC(C)CCC1CCCC1NCc1nc(=O)[nH][nH]1` (stereo not given) the same measures were 5% and -0.58.
For `CCNc1nc2c(s1)[C@@H](c1ccc3c(c1)OCO3)CC(=O)N2` the same measures were -10% and 0.96.
As for `Cc1cnc(N(C)CCc2c(C)n[nH]c2C)nc1-c1ncnn1C`, the “% Inhibition” value was found to be 1% and the Z score was -0.14.
On to `CCc1onc(C)c1[C@@H]1CCCN1C(=O)c1c(Cl)cnn1CC`, for which the “% Inhibition” value is on record as -7% and the Z score came out at 0.99.
For the compound `c1ccc2c(N3CCCC3)nc(N3CCN(C4CCCCC4)CC3)nc2c1`, the “% Inhibition” value is recorded as -5% and the Z score worked out at 0.7.
For `CCCO[C@H]1CCCN(S(=O)(=O)c2c(C)cc(C)c3nonc23)C1`, in that order: -15% and 2.95.
Turning to `CC(C)[C@H](NC(=O)c1ccc(Oc2ccccc2)o1)C(N)=O`, the “% Inhibition” value is given as -9% and the Z score came out at 1.67.
With `Cc1c[nH]c([C@H](C)n2cnc3ncccc3c2=O)n1`, the “% Inhibition” value is -3% and the Z score was 0.61.
With `Cc1cccc(NC(=O)Cn2c(C)cc(C)c(-c3nc(-c4ccccc4)no3)c2=O)c1`, the “% Inhibition” value is recorded as -10% and the Z score worked out at 1.83.
With `CN(C)S(=O)(=O)N1C[C@H]2CCC(=O)c3cccc1c32`, the “% Inhibition” value is 0% and the Z score came out at 0.02.
Take `O=C(Cn1c(=O)c2nncn2c2ncccc21)N1CCN(c2ccccc2)CC1`: the “% Inhibition” value worked out at 0% and the Z score was found to be 0.06.

In general, % Inhibition refers to the drop in the measured response relative to a control, in per cent.
